Experimental data: patent publication US20180312565A1 (Affibody, published 2018)
Numbering of substitutions follows the chain as printed.

B1: His6-Z17972 (designed binder)
chain: MGSSHHHHHHLQVDAKYAKERNIAAYEILYLPNLTNNQKWAFIWKLDDDPSQSSELLSEAKKLNDSQAPKVD
B2: His6-Z17978 (designed binder)
chain: B1 chain with I23E, N36Q, N37S
B3: His6-Z18022 (designed binder)
chain: B1 chain with I23S, N37Q
B4: His6-Z18039 (designed binder)
chain: B1 chain with I23E, N36Q, N37S, K39I
B5: His6-Z18052 (designed binder)
chain: B1 chain with N36Q, N37S, K39I
B6: His6-Z18054 (designed binder)
chain: B1 chain with I23D, Y26F, N36Q, N37A, K39I
B7: His6-Z18070 (designed binder)
chain: B1 chain with I23A, N37H
B8: His6-Z18090 (designed binder)
chain: B1 chain with I23D, N37Q, D47A
B9: His6-Z18101 (designed binder)
chain: B1 chain with I23S, N37L
B10: His6-Z18129 (designed binder)
chain: B1 chain with I23S, N36Q, N37A
B11: His6-Z18149 (designed binder)
chain: B1 chain with I23N, N36Q, N37A
B12: His6-Z18233 (designed binder)
chain: B1 chain with I23T, Y26Q, N36Q, N37G
B13: His6-Z18353 (designed binder)
chain: B1 chain with I23E, N36Q, N37A
B14: His6-Z18418 (designed binder)
chain: B1 chain with I23E, Y30H, N36S, N37Y, K39H
B15: Z18243-ABD (designed binder)
chain: AQHDEALEVDAKYAKERNAAAYEILYLPNLTQLQKWAFIWKLDDDPSQSSELLSEAKKLNDSQAPKVDYVLAEAKVLANRELDKYGVSDYYKNLINNAKTVEGVKALIDEILAALPYVPG
notes: domain: GA3
B16: Z18252-ABD (designed binder)
chain: B15 chain with A19E, Y22F, Q32N, L33Q
notes: domain: GA3
B17: Z18268-ABD (designed binder)
chain: B15 chain with Y22F, Y26W, Q32N, L33A
notes: domain: GA3
B18: Z18353-ABD (designed binder)
chain: B15 chain with A19E, L33A
notes: domain: GA3
B19: Z18374-ABD (designed binder)
chain: B15 chain with A19E, Y22F, Y26H, Q32K, L33A, K35H, D43A
notes: domain: GA3
B20: Z18377-ABD (designed binder)
chain: B15 chain with A19D, Y22F, L33T, K35I
notes: domain: GA3
B21: Z18418-ABD (designed binder)
chain: B15 chain with A19E, Y26H, Q32S, L33Y, K35H
notes: domain: GA3
B22: His6-Z17746 (designed binder)
chain: B1 chain with I23E, N37A

Key:
[1] = biological target: T1, human PD-L1 Fc Chimera (R&D Systems, cat. no. 156-B7-100) (human, UniProt Q9NZQ7 19-239, biotinylated with Sulfo-NHS-LC-Biotin in ELISA and AlphaLISA; not biotinylated in SPR); assay: SPR ranking, 5 and 50 nM
T1 construct: bought; also called hPD-L1; biotinylated hPD-L1; not shown: Fc part of the bought Fc chimera, not described
Procedure: (§1) The Z variants were also tested for binding against the sequence-related proteins hPD-L2, hB7-H3 and hB7-H4. The Biacore analyses were performed essentially as described in Example 3, however a flow rate of 30 μl/min was used. […] In the specificity test, i.e. the binding analysis against hPD-L2, hB7-H3 and hB7-H4, the 24 Z variants were injected at a concentration of 500 nM.

[2] = biological target: T2, human PD-L2 Fc Chimera (R&D Systems, cat. no. 1224-PL-100) (human, UniProt Q9BQ51 20-219, biotinylated in ELISA); assay: SPR
T2 construct: bought; also called hPD-L2; not shown: Fc part of the bought Fc chimera, not described
T2 sequence (looked up): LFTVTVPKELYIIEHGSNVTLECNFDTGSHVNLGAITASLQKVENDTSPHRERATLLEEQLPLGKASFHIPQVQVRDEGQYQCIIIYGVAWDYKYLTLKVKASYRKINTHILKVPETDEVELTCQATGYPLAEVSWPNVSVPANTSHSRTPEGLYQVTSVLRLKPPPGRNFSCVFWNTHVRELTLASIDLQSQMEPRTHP
Procedure: (§2) One flow cell surface on each chip was activated and deactivated for use as blank during analyte injections. In the kinetic experiment, HBS-EP was used as running buffer and the flow rate was 50 μl/min. The analytes, i.e. the Z variants, were each diluted in HBS-EP buffer within a concentration range of 1000 to 0.01 nM and injected for 5 min, followed by dissociation in running buffer for 15-25 min. After dissociation, the surfaces were regenerated with one or two injections of 0.1% SDS. Kinetic constants were calculated from the sensorgrams using the Langmuir 1:1 model of BiaEvaluation software 4.1 (GE Healthcare).
(§3) The Z variants were also tested for binding against the sequence-related proteins hPD-L2, hB7-H3 and hB7-H4. The Biacore analyses were performed essentially as described in Example 3, however a flow rate of 30 μl/min was used.

[3] = biological target: T3, human B7-H4 (R&D Systems, cat. no. 6576-B7-50) (human, UniProt Q7Z7D3 29-258, biotinylated in ELISA); assay: SPR
T3 construct: bought; also called hB7-H4
T3 sequence (looked up): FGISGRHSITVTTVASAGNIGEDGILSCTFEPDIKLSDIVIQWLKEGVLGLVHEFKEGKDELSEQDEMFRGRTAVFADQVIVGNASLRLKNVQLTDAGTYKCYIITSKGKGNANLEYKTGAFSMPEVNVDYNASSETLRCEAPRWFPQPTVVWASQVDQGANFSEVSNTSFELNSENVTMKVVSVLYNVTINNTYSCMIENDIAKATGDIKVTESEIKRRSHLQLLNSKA
Procedure: as §2, §3

[4] = biological target: T4, human B7-H3 Fc Chimera (R&D Systems, cat. no. 1027-B3-100) (human, UniProt Q5ZPR3-2 29-245, biotinylated in ELISA); assay: SPR
T4 construct: bought; also called hB7-H3; not shown: Fc part of the bought Fc chimera, not described
T4 sequence (looked up): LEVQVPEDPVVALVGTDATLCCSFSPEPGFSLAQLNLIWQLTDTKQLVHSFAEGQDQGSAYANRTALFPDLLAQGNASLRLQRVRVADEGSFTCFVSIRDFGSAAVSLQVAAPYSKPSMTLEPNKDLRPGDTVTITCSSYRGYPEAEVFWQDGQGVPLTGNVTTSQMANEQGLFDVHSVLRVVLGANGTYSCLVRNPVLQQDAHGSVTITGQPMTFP
Procedure: as §2, §3

[5] = biological target: T1, human PD-L1 Fc Chimera (R&D Systems, …); assay: AlphaLISA, blocks hPD-L1 binding to hPD-1
Procedure: Exception 2: hPD-1-coated Acceptor beads were added to a final concentration of 10 μg/ml and incubated for 50 min.

[6] = biological target: T5, rhesus PD-L1/Fc Chimera (Sino Biological Inc., cat. no. 90251-C02H) (rhesus monkey, UniProt F6PJN1 19-239); assay: SPR ranking, 5 and 50 nM
T5 construct: bought; also called RhPD-L1; rhesus monkey PD-L1; not shown: Fc part of the bought Fc chimera, not described
Procedure: as §1

[7] = biological target: T1, human PD-L1 Fc Chimera (R&D Systems, …); assay: ELISA titration, captured Z-ABD

T1 sequence (Q9NZQ7 19-239, change not shown): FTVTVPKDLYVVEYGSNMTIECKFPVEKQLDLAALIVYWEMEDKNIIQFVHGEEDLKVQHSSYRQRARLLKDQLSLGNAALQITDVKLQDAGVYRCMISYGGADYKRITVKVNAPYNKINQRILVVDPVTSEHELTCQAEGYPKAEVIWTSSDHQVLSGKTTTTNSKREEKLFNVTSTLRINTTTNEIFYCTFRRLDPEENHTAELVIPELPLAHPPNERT
T5 sequence (F6PJN1 entry or part of it C02H C02H): as the sequence (Q9NZQ7 19-239, change not shown) above, with A33T, A34S, S62N, R68Q, Q82R, F173L, T185A, T192I, H215L counted along it

Binder	Kd [1] [pM]	binding result [2]	binding result [3]	binding result [4]	IC50 [5] [pM]	Kd [6] [pM]	EC50 [7] [pM]
B1	~540	no binding (tested: 500 nM)	no binding (tested: 500 nM)	no binding (tested: 500 nM)	–	–	–
B2	~450	no binding (tested: 500 nM)	no binding (tested: 500 nM)	no binding (tested: 500 nM)	620	~1000	–
B3	~340	no binding (tested: 500 nM)	no binding (tested: 500 nM)	no binding (tested: 500 nM)	310	–	–
B4	~630	no binding (tested: 500 nM)	no binding (tested: 500 nM)	no binding (tested: 500 nM)	–	~1900	–
B5	~450	no binding (tested: 500 nM)	no binding (tested: 500 nM)	no binding (tested: 500 nM)	340	~1200	–
B6	–	no binding (tested: 500 nM)	no binding (tested: 500 nM)	no binding (tested: 500 nM)	1100	~1200	–
B7	–	no binding (tested: 500 nM)	no binding (tested: 500 nM)	no binding (tested: 500 nM)	860	~2500	–
B8	~510	no binding (tested: 500 nM)	no binding (tested: 500 nM)	no binding (tested: 500 nM)	670	~2300	–
B9	~930	no binding (tested: 500 nM)	no binding (tested: 500 nM)	no binding (tested: 500 nM)	620	–	–
B10	–	no binding (tested: 500 nM)	no binding (tested: 500 nM)	no binding (tested: 500 nM)	600	~1200	–
B11	~530	no binding (tested: 500 nM)	no binding (tested: 500 nM)	no binding (tested: 500 nM)	–	~960	–
B12	~720	no binding (tested: 500 nM)	no binding (tested: 500 nM)	no binding (tested: 500 nM)	150	~4400	–
B13	~460	no binding (tested: 500 nM)	no binding (tested: 500 nM)	no binding (tested: 500 nM)	720	~1600	–
B14	~1900	no binding (tested: 500 nM)	no binding (tested: 500 nM)	no binding (tested: 500 nM)	570	~4100	–
B15	–	–	–	–	–	–	81
B16	–	–	–	–	–	–	85
B17	–	–	–	–	–	–	89
B18	–	–	–	–	–	–	77
B19	–	–	–	–	–	–	100
B20	–	–	–	–	–	–	78
B21	–	–	–	–	–	–	80
B22	–	no binding (tested: 500 nM)	no binding (tested: 500 nM)	no binding (tested: 500 nM)	1300	~520	–
